The shares of active, inactive and inconclusive entries below differ from those in the screen. Potencies of inconclusive entries are left out as doubtful fits. Activity calls are given as the source filed them. The call rests on the fitted dose curve; in most records, active means well fitted curve in the direction sought with a large enough effect; inconclusive means small, poorly fitted or top-dose-only effect, or another doubt; inactive means no such curve, though single readings can be large; an effect the other way counts as inactive or inconclusive.
How the values were obtained:
[1] = biological target: ATPase family AAA domain-containing protein 5 (Homo sapiens) (UniProt Q96QE3); assay: qHTS screen for small molecules that inhibit ELG1-dependent DNA repair in human embryonic kidney (HEK293T) cells expressing luciferase-tagged ELG1: Hit Confirmation using MMS Stimulated ELG1 (AID 624249); further: nearly all actives have a fitted effect of over 60% in size
Procedure, shortened: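 MMS-stimulated (10 µM final) ELG1-luc HEK293T cells; compound added ~5 h after plating at 2,000 cells/well; Amplight luminescence after 16 h; lower signal = inhibition.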

[2] = qHTS screen for small molecules that inhibit ELG1-dependent DNA repair: Hit Confirmation with 5FU Viability (AID 624250);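 further: viability measured 16 h after compound addition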
Procedure, shortened: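 HEK293T ELG1-luc; cpd + 5-fluorouridine (10 µM final) added ~5 h post-seeding; 16 h incubation; CellTiter-Glo viability readout.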

[3] = qHTS screen for small molecules that inhibit ELG1-dependent DNA repair: Hit Confirmation with MMS Viability (AID 624251);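 further: viability read 16 h after compound addition; nearly all actives have a fitted effect of over 60% in size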
Procedure, shortened: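 MMS (final 10 µM) was co-dosed with compounds onto HEK293T cells carrying the ELG1-luc reporter; cell viability was quantified by CellTiter-Glo at 16 h.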
Potency means the concentration at half of the fitted maximal effect; tags describe the fitted curve by direction and shape.

UniProt Q96QE3, sequence (Q96QE3 whole entry, looked up, the tested form may be a part): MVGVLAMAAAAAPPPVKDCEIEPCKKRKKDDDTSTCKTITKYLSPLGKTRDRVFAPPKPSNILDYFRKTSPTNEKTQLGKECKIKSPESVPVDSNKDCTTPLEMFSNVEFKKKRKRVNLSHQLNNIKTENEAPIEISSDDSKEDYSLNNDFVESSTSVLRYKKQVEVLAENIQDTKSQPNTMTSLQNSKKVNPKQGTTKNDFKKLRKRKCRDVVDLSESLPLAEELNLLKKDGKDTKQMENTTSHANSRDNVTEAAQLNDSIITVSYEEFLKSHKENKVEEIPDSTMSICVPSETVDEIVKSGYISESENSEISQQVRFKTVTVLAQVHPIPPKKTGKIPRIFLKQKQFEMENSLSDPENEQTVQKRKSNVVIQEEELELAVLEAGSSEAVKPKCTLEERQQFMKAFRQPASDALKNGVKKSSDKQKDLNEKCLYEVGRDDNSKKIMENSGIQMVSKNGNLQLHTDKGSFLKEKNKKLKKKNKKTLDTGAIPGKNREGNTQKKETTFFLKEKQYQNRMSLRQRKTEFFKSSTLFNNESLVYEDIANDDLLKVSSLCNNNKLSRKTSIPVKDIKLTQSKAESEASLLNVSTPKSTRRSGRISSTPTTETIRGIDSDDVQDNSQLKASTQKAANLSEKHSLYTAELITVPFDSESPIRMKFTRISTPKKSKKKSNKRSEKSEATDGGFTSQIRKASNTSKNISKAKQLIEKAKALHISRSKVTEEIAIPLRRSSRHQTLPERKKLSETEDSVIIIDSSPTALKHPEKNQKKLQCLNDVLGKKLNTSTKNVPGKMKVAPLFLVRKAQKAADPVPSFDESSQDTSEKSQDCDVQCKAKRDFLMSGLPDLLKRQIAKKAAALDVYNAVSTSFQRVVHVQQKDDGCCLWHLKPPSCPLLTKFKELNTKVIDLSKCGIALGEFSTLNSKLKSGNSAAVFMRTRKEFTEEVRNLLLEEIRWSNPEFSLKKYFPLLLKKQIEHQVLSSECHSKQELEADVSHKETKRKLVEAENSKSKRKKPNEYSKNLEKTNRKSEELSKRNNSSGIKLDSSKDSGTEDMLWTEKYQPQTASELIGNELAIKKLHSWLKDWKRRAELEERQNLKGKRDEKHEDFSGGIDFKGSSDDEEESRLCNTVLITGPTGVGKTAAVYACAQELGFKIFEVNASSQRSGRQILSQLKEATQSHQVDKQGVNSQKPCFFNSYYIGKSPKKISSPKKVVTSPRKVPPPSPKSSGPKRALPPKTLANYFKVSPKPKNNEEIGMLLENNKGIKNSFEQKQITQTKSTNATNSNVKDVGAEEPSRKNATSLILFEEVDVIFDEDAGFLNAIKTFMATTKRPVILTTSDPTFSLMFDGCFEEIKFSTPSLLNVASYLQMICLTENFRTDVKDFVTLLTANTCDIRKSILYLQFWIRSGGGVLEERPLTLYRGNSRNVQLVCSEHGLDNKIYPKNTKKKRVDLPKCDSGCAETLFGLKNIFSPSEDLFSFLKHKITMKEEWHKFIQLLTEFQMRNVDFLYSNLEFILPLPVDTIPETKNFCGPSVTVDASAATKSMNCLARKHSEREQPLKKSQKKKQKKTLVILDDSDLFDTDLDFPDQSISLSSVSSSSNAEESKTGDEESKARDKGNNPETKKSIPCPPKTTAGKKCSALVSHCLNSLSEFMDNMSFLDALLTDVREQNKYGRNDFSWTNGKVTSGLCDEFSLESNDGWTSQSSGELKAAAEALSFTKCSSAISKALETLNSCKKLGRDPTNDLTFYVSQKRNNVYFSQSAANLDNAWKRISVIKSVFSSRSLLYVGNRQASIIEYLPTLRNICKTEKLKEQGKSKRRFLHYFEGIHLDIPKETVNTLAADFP

## COc1ccc(/C=N/NC(=O)c2ccoc2C)cc1CN1CCN(c2ccc(F)cc2)CC1
[1]
  Potency: inactive
[2]
  Potency: inconclusive [rising, full curve]

## COc1ccc(-c2nc3ccc(C(=O)NCC(OC)OC)cc3nc2-c2ccc(OC)c(OC)c2)cc1OC
[1]
  Potency: inactive
[2]
  Potency: inconclusive [rising, full curve]
[3]
  Potency: inconclusive [rising, full curve, poor fit]

## C#Cc1ccc([C@H]2C=C(C(=O)N3CCN(Cc4ccc5c(c4)OCO5)CC3)O[C@@H](OCc3ccc(CO)cc3)C2)cc1
[1]
  Potency: inconclusive [inhibitor, partial curve, poor fit]
[2]
  Potency: inconclusive [rising, full curve, poor fit]
[3]
  Potency: inconclusive [rising, partial curve, poor fit]

## CCOc1ccc(C(=O)Nc2cc3c(cc2N2CCCC2)n(CC)c(=O)n3CC)cc1OCC
[1]
  Potency: inconclusive [inhibitor, single point]
[2]
  Potency: inactive
[3]
  Potency: inconclusive [cytotoxic, partial curve, poor fit]

## CC(=O)Oc1ccc2c(C)c(CC(=O)N3CCN(C(=O)C4COc5ccccc5O4)CC3)c(=O)oc2c1C (configuration not stated)
[1]
  Potency: inconclusive [inhibitor, single point]
[2]
  Potency: inconclusive [rising, full curve, poor fit]
[3]
  Potency: inconclusive [cytotoxic, single point]

## Nc1ncc([N+](=O)[O-])c(N2CCCCCC2)n1
[1]
  Potency: active: 12.5 µM
[2]
  Potency: inactive
[3]
  Potency: inactive
